# PubChem BioAssay AID686979 (National Center for Advancing Translational Sciences (NCATS), 2013)
# Hit rate of the full screen: of about 420,000 compounds, about 50,000 (12%) were called active. This list was built around the results that the source calls inconclusive (neither active nor inactive); the mix of calls is not that of the screen. Calls follow the shape of the dose curve; as a rule, active = well fitted inhibition curve with a large enough effect; inconclusive = small, poorly fitted or top-dose-only effect; inactive = flat fitted curve, though single readings scatter. No potency is given beside an inconclusive call; the fits are too rough.
# Experiment: qHTS for Inhibitors of human tyrosyl-DNA phosphodiesterase 1 (TDP1): qHTS in cells in presence of CPT; also: nearly all actives have a fitted effect of over 55% in size
# Conditions: chicken DT40 Tdp1-/-;hTDP1 cells + 20 nM CPT, ATP luminescence, 48 h; activity change, negative = growth inhibition: at 46.2 µM (top of the series) unless noted
# Procedure, shortened: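 Chicken DT40 Tdp1-/- cells stably complemented with human TDP1 were seeded at 400 cells/well in medium containing 20 nM camptothecin, exposed to pin-transferred compounds, and grown at 37 °C for at least 48 hr. Viability was read as ATP luminescence.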
# % is scaled to controls: 0 for no effect and ±100 for the full control effect; potency is read from the fitted curve at half-maximal effect; tags tell the direction and shape of the fitted curve.
Compound,"activity change, negative = growth inhibition",Potency
O=C(CN1C(=O)C2C3C=CC(C4CC34)C2C1=O)Oc1ccccc1 (stereo unspecified),inactive: 4.78%,
CCC(C)(C)NC(=O)C(c1ccc(C)cc1)N(CCN1CCOCC1)C(=O)CNC(=O)c1cccs1 (stereo unspecified),,"inconclusive [inhibitor, single point]"
COc1ccc(S(=O)(=O)N2CCC3(CC2)OCCN3S(=O)(=O)c2ccccc2)cc1OC,,"inconclusive [inhibitor, single point]"
Cc1cc(C)c2nc(N(CCCN(C)C)C(=O)c3ccc(S(=O)(=O)N4CC(C)OC(C)C4)cc3)sc2c1 (stereo unspecified),,active: 16.4 µM
COc1ccc(C(=O)Nc2cccc(S(C)(=O)=O)c2)cc1,,"inconclusive [inhibitor, single point]"
CCCSc1nc2c(c(=O)n(C)c(=O)n2C)n1Cc1ccc(C)cc1,,"inconclusive [inhibitor, single point]"
CN(Cc1ccccc1)c1nc(-c2cccc([N+](=O)[O-])c2)nc2ccccc12,,active: 18.4 µM
CC(C)C(NS(C)(=O)=O)c1nnc2n1CCN(Cc1ccc(Cl)cc1)CC2 (stereo unspecified),inactive: 3.32% [at 9.04 µM],
CCCC(=O)NC(c1cccs1)c1cc([N+](=O)[O-])c2cccnc2c1O (stereo unspecified),,active: 23.1 µM
COc1ccc(CC(=O)Nc2c(C(=O)Nc3ccc(F)cc3)oc3ccccc23)cc1OC,,active: 11.6 µM
COc1ccc(Cn2nnnc2CN2CCC(c3nc4ccccc4s3)CC2)cc1,,"inconclusive [inhibitor, partial curve]"
CC(=O)Nc1ccc(N=Cc2c(O)c3ccccc3oc2=O)cc1,,active: 20.6 µM
CC1(C(=O)NS(=O)(=O)c2ccccc2)CCN1C(=O)c1ccccc1 (stereo unspecified),inactive: 5.22%,
Clc1cccc(CNc2nnnn2-c2ccccc2)c1,,"inconclusive [inhibitor, single point]"
Cc1cc2cc3c(cc2nc1SCC(=O)Nc1ccccc1)CCC3,,active: 14.6 µM
O=C(Nc1cccc(Cl)c1)c1nc[nH]c1C(=O)NCc1ccccc1,,"inconclusive [inhibitor, single point]"
COC(=O)c1c(N2C(=O)CC(Sc3ncccc3C(=O)O)C2=O)sc(C)c1C (stereo unspecified),,"inconclusive [inhibitor, single point]"
COc1ccc(-c2nc3ccccc3o2)cc1NC(=O)CSc1ccc(Cl)cc1,,"inconclusive [inhibitor, partial curve]"
Cn1cc(S(=O)(=O)N2CCCC(C(=O)O)C2)cn1 (stereo unspecified),inconclusive: 2.48% [inhibitor],
Cc1cccc(NS(=O)(=O)c2ccc3c(c2)Cc2cc(S(=O)(=O)Nc4cccc(C)c4C)ccc2-3)c1C,,active: 6.51 µM
Cc1cc(C)c(S(=O)(=O)NN=C2c3ccccc3[C@H]3Cc4csc[n+]4[C@@H]23)c(C)c1,,active: 29.1 µM
O=C(CCSCc1ccccc1F)N1CCN(c2ccc(Cl)cc2)CC1,,active: 23.1 µM
CCOC(=O)c1sc(=S)[nH]c1C,inactive: -3.6%,

Compound,"activity change, negative = growth inhibition",Potency
COCc1ccc(CN2CCCC(C(=O)Nc3ccc(-c4cccc(OC)c4)cc3)C2)o1 (stereo unspecified),,"inconclusive [inhibitor, single point]"
O=C(NN1C(=O)c2ccccc2NC1c1ccoc1)c1ccc([N+](=O)[O-])cc1 (stereo unspecified),inactive: -17%,
C=CCOc1ccc(/C=C\c2nc(O)c([N+](=O)[O-])c(=O)[nH]2)cc1OCC,inactive: -6.81%,
CCC1CCCCN1CCCNC(=O)c1c(O)nc2c(C)cccn2c1=O (stereo unspecified),,inactive
Fc1ccc(Cn2nnnc2CN2CCc3ccccc3C2)cc1,,"inconclusive [inhibitor, partial curve]"
O=C(CCCc1nc(-c2ccc(Cl)cc2)no1)NC1CCCC1,,active: 8.2 µM
CCCNc1c(NS(=O)(=O)c2ccc(C)c(C)c2)c(=O)oc2ccccc12,,"inconclusive [inhibitor, single point]"
C/C(=N\NC(=O)CCc1ccccc1)C1C(=O)c2ccccc2C1=O,,active: 1.64 µM
Cn1c(=O)c2cc(NC(=S)NCc3ccccc3F)ccc2n1Cc1ccc(F)cc1,,"inconclusive [inhibitor, partial curve, poor fit]"
CCOC(=O)c1ccc(NC2=CC(c3ccc(O)c(OCC)c3)N(c3ccc(C(=O)OCC)cc3)C2=O)cc1 (stereo unspecified),,active: 13 µM
C[C@@]12CCC3[C@@](CCC4[C@@]3(C)CCC[C@@]4(C)C(=O)Nc3ccc(Cl)cc3)(CC1=O)C2 (stereo partly specified),,"inconclusive [inhibitor, single point]"
COc1ccc(Br)cc1C(=O)Nc1ccccc1N1CCCC1,,"inconclusive [inhibitor, single point]"
CCCN1CCN(CCNC(=O)Nc2cc(C)ccc2OC)CC1,inactive: 6%,
CCOC(=O)N1CCN(C(=O)c2ccc3c(Cl)c4c(nc3c2)CCCC4)CC1,,"inconclusive [inhibitor, single point]"
COc1ccc(-n2c(/C=C/c3cccc4ccccc34)nc3ccccc3c2=O)cc1Cl,,active: 20.6 µM
C=CCn1c(SCC(=O)N2CCc3ccccc3C2)nc2sc(C)c(C)c2c1=O,,active: 18.4 µM
COc1ccc(C(=O)Nc2ccc(N3CCN(Cc4ccccc4)CC3)cc2)cc1,inactive: -13.9%,
Cc1cc(C)nc(SCc2nnc(SCC(=O)Nc3nccs3)n2Cc2ccco2)n1,inconclusive: -36.7% [inhibitor],
O=C(O)CCn1c(O)c(C=C2N=c3ccccc3=N2)sc1=S,,"inconclusive [inhibitor, single point]"
Cc1ccc(-c2cnc(C(O)c3cc(C)cc(C)c3)[nH]2)cc1 (stereo unspecified),,"inconclusive [inhibitor, single point]"
Cc1cc(-c2nn(C)c(=O)c3ccccc23)cc(C)c1O,,"inconclusive [inhibitor, partial curve]"
COc1cc(-c2cc(C(=O)NCc3ccco3)c3ccccc3n2)cc(OC)c1OC,,"inconclusive [inhibitor, partial curve]"
CCc1ccc(N2C(=O)Cc3c2nc(N)c(C#N)c3N)cc1,inactive: -11.1%,
